In all, about 220,000 compounds went through this assay and about 16,000 (7.3%) were called active. The inconclusive results got no clear call from the source; some entries with a clear call stand among them for comparison. Calls come from the whole dose curve; as a rule, active = well fitted inhibition curve with a large enough effect (not every such curve was filed as active); inconclusive = small, poorly fitted or top-dose-only effect, or another doubt; inactive = no such curve, though single readings can be large or run the other way. Potencies of inconclusive entries are left out as doubtful fits.
The compounds below were run against Aldehyde dehydrogenase 1A1 (Homo sapiens) (UniProt P00352) (assay: qHTS Assay for Inhibitors of Aldehyde Dehydrogenase 1 (ALDH1A1)). Conditions: Purified ALDH1A1, NADH fluorescence, propionaldehyde substrate; series mostly up to 75.3 µM.
Chain of UniProt P00352 (P00352 whole entry, looked up): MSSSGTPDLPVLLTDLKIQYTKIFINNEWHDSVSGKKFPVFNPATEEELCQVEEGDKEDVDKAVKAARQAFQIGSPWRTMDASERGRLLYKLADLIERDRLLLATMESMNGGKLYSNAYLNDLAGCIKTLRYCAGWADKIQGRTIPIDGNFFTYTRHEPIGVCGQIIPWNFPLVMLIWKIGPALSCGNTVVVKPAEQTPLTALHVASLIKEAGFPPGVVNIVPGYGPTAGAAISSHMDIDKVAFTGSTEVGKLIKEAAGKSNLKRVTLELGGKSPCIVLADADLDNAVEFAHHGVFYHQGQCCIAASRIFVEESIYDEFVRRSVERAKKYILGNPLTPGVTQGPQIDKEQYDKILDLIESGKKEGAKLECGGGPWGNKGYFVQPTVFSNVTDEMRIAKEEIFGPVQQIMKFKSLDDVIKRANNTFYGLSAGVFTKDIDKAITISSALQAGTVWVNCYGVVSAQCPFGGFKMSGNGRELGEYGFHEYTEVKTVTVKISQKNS
With CC(=O)NC1(c2ccccc2)CCN(c2nc(C)cc(C)n2)CC1 the Potency was inconclusive [inhibitor, single point].
With COc1cc2c(cc1OC)C(C1C(=O)CCCC1=O)N(C(=O)CCl)CC2 (stereo not given) the Potency was inconclusive [inhibitor, partial curve].
For C=C1C(c2ccc(C)cc2)=CCc2cc(C)cc(C)c21, the Potency was inconclusive [inhibitor, single point].
In the case of NC(=O)c1ccc(-n2nnnc2SCC(=O)c2ccc(O)c(O)c2)cc1, the Potency was inconclusive [inhibitor, partial curve].
In the case of C=CCN(CC(=O)NCc1ccc(OC)cc1)C(=O)c1csnn1, the Potency was “inactive”.
CCN1CCN(c2ncnc3c2sc2nc(N4CCOCC4)c4c(c23)CCC4)CC1 was tested, and the Potency was inconclusive [inhibitor, single point].
With O=C1/C(=C\c2cccnc2)SC(=S)N1c1ccc(F)cc1 the Potency was inconclusive [inhibitor, partial curve, poor fit].
COc1ccc(CNC(=O)CCCc2ccccc2)cc1 was tested, and the Potency was active: 1.12 µM.
O=C(c1ccc(Cl)cc1)N1CCC(O)(CSc2ccccc2)CC1 was tested, and the Potency was active: 1.41 µM.
For COc1ccc(C(CNC(=O)c2cc3ccccc3o2)N2CCCCC2)cc1 (stereo not given), the Potency was “inactive”.
In the case of COc1ccccc1Nc1nc(-c2sc(NC(=O)C(C)(C)C)nc2C)cs1, the Potency was inconclusive [inhibitor, partial curve].
With O=C(CCN1CCOCC1)c1ccc2c(c1)OCCO2 the Potency was active: 0.447 µM.
With CC(C)Cn1c2nc3ccccc3nc2c2c(=O)n(CCN3CCOCC3)cnc21 the Potency was inconclusive [inhibitor, partial curve].
In the case of COc1cc(NC(=O)c2ccc3c(c2)OCO3)ccc1NC(=O)c1cccs1, the Potency was inconclusive [inhibitor, single point].
With O=C(CN1CCCC1)Nc1ccccc1C(=O)c1ccccc1 the Potency was “inactive”.
S=C(c1cn(Cc2ccccc2)c2ccccc12)N1CCOCC1 was tested, and the Potency was inconclusive [inhibitor, single point].
In the case of O=C(/C=C/c1ccco1)OCc1nnc(-c2ccccc2)o1, the Potency was inconclusive [inhibitor, single point].
For COc1ccc(CC(=O)Nc2ccc(-c3cn4cccc(C)c4n3)cc2)cc1OC, the Potency was inconclusive [inhibitor, single point].
In the case of COc1cccc(-c2cc(C(F)(F)F)nc(-n3cc(Cl)cn3)n2)c1, the Potency was inconclusive [inhibitor, partial curve].
With Cc1nnc(SCC(=O)NC23CC4CC(CC(C4)C2)C3)s1 the Potency was inconclusive [inhibitor, single point].
With CCOc1ccc(NC(=O)CN2CCN(CC(=O)Nc3ccc(OC)cc3)CC2)cc1 the Potency was inconclusive [inhibitor, single point].
For COc1ccc(-c2ccc(SCC(=O)c3ccc(F)cc3)nn2)cc1OC, the Potency was active: 15.8 µM.
In the case of CCn1cc(C(=O)NCc2ccc(C)o2)c2cc(OC)c(OC)cc2c1=O, the Potency was inconclusive [inhibitor, single point].
For CCCOC(=O)c1ccc(NS(=O)(=O)c2cccs2)cc1, the Potency was inconclusive [inhibitor, single point].
With O=C(NNc1cccc(Cl)c1)c1cccnc1Oc1ccccc1 the Potency was inconclusive [inhibitor, single point].
COCCN1C(=O)N[C@@H](c2ccc(Br)cc2)C(C(C)=O)=C1C was tested, and the Potency was “inactive”.
For CCCOc1cccc(-c2nc3ccccc3c(=O)o2)c1, the Potency was “inactive”.
For CC(=O)OCc1nc2sc3c(c2c(=O)[nH]1)CCCC3, the Potency was inconclusive [inhibitor, single point].
O=C(Nc1ccccc1)C1=C[C@@H](C2CCCCC2)C[C@@H](OCc2ccc(CO)cc2)O1 was tested, and the Potency was active: 4.47 µM.
CCNc1nc(ON=C(C)C)nc(N(C)C)n1 was tested, and the Potency was inconclusive [inhibitor, single point].
O=C1CC(N2CCSCC2)C(=O)N1c1ccccc1 (stereo not given) was tested, and the Potency was inconclusive [inhibitor, single point].
For CCCCNC(=O)C(c1ccc(OCC(=O)OC)c(C(=O)OC)c1)N(Cc1ccccc1)C(=O)CCCCCN1C(=O)NC(c2ccc(-c3ccccc3)cc2)C(C(=O)OCc2ccccc2)=C1C (stereo not given), the Potency was “inactive”.
For Cc1cc(C(=O)CSc2nc3ccccc3[nH]2)c(C)n1CC1CCCO1 (stereo not given), the Potency was inconclusive [inhibitor, single point].
O=C(c1ccco1)N1CCN(C(=O)c2cc(-c3ccccn3)nc3ccccc23)CC1 was tested, and the Potency was active: 3.55 µM.
With Cc1cc(SCC(=O)N/N=C/c2ccc(O)cc2O)c(C)cc1Br the Potency was “inactive”.
For CCOC(=O)c1sc(NC(=O)C2CCCO2)c(C(=O)OCC)c1C (stereo not given), the Potency was active: 8.91 µM.
With COc1cc(/C=N/NC(=S)NC2CC3C=CC2C3)cc(OC)c1OC (stereo not given) the Potency was active: 2.51 µM.
O=C(CSCC(=O)N1CCCCC1)OCC(=O)c1c[nH]c2ccccc12 was tested, and the Potency was inconclusive [inhibitor, single point].
In the case of Cn1nnnc1SCC(=O)N1CCN(C(=O)c2ccco2)CC1, the Potency was inconclusive [inhibitor, partial curve, poor fit].
With CC(=O)NC(Cc1ccc(F)c(F)c1)C(=O)NC1CCN(c2nnnn2-c2ccccc2)CC1 (stereo not given) the Potency was active: 3.16 µM.
In the case of O=C(Nc1ccccc1N1CCCCC1)c1ccco1, the Potency was “inactive”.
With COCCCNC(=O)c1c(N)n(-c2ccc(S(N)(=O)=O)cc2)c2nc3ccccc3nc12 the Potency was inconclusive [inhibitor, partial curve].
In the case of S=C(N/N=C1\CCc2ccccc21)NC1CCCCC1, the Potency was inconclusive [inhibitor, partial curve].
With O=C(COc1cccc2ccccc12)NNC(=O)Nc1ccccc1 the Potency was inconclusive [inhibitor, single point].
For O=C(CCN1C(=O)c2ccccc2C1=O)Nc1ccc(S(=O)(=O)N2CCOCC2)cc1, the Potency was inconclusive [inhibitor, single point].

From PubChem BioAssay AID1030 (National Center for Advancing Translational Sciences (NCATS), 2008)
Potency is the fitted concentration of half-maximal effect; tags give direction and shape of the fitted curve.
